Molecular target: T1, human pre-TCR (pTα chain of the pre-T cell receptor) on the cell surface (human, UniProt Q6ISU1 24-281)
T1 sequence (looked up): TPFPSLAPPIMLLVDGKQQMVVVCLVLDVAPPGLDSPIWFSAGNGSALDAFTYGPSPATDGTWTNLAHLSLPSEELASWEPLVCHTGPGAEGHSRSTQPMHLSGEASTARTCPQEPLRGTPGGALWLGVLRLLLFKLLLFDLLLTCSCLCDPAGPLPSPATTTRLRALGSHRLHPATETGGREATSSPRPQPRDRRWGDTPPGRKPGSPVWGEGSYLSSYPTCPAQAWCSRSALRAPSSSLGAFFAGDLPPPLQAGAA
Test: cell-based or functional assay

B1: CARpTα.41BB (other, human)
chain: EVQLVESGGGLVKPGGSLQLSCAASGFTFNRYAMSWVRQTPEKRLEWVAAISSGGSYTYYPDSVKGRFIISRDNAKNTLSLQMSSLRSEDTAMFYCARLRVVAEGGSYFDYWGQGTTLTVSSGGGGSGGGGSGGGGSGGGGSDVLMTQTPLSLPVSLGDQASISCRSSQSILHSNGNTYLEWYLQKPGQSPKLLIYKVSNRFSGVPDRFSGSGSGTDFTLKISRVEAEDLGVYYCFQGSHVPVTFGSGTKLEIKTTTPAPRPPTPAPTIASQPLSLRPEACRPAAGGAVHTRGLDFACDIYIWAPLAGTCGVLLLSLVITLYCKRGRKKLLYIFKQPFMRPVQTTQEEDGCSCRFPEEEEGGCEL[in this place about 120 residues]
How did the “specific lysis of JR-Mig-pTα cells at E:T cell ratio 0.25:1” value turn out when B1 was run?
Its value is at most 80%.

And the “specific lysis of JR-Mig-pTα cells at E:T cell ratio 0.5:1” value?
Its value is at most 90%.

From patent publication EP4491192A1 (Consejo Superior De Investigaciones Científicas, dated 2025)
